{"source": "PubChem BioAssay AID504333", "about": "(National Center for Advancing Translational Sciences (NCATS), 2011)", "note": "Out of some 360,000 compounds screened, about 16,000 (4.4%) were called active. The shares of active, inactive and inconclusive entries below differ from those in the screen. Calls follow the shape of the dose curve; as a rule, active = well fitted inhibition curve with a large enough effect; inconclusive = small, poorly fitted or top-dose-only effect; inactive = no such curve, though single readings can be large or run the other way. Potencies beside an inconclusive call are fits to weak or partial responses and may not hold up. % is scaled to controls: 0 for no effect and ±100 for the full control effect; potency is read from the fitted curve at half-maximal effect; tags tell the direction and shape of the fitted curve."}
{"target": "Bromodomain adjacent to zinc finger domain protein 2B (Homo sapiens) (UniProt Q9UIF8)", "sequence (Q9UIF8 whole entry, looked up, the tested form may be a part)": "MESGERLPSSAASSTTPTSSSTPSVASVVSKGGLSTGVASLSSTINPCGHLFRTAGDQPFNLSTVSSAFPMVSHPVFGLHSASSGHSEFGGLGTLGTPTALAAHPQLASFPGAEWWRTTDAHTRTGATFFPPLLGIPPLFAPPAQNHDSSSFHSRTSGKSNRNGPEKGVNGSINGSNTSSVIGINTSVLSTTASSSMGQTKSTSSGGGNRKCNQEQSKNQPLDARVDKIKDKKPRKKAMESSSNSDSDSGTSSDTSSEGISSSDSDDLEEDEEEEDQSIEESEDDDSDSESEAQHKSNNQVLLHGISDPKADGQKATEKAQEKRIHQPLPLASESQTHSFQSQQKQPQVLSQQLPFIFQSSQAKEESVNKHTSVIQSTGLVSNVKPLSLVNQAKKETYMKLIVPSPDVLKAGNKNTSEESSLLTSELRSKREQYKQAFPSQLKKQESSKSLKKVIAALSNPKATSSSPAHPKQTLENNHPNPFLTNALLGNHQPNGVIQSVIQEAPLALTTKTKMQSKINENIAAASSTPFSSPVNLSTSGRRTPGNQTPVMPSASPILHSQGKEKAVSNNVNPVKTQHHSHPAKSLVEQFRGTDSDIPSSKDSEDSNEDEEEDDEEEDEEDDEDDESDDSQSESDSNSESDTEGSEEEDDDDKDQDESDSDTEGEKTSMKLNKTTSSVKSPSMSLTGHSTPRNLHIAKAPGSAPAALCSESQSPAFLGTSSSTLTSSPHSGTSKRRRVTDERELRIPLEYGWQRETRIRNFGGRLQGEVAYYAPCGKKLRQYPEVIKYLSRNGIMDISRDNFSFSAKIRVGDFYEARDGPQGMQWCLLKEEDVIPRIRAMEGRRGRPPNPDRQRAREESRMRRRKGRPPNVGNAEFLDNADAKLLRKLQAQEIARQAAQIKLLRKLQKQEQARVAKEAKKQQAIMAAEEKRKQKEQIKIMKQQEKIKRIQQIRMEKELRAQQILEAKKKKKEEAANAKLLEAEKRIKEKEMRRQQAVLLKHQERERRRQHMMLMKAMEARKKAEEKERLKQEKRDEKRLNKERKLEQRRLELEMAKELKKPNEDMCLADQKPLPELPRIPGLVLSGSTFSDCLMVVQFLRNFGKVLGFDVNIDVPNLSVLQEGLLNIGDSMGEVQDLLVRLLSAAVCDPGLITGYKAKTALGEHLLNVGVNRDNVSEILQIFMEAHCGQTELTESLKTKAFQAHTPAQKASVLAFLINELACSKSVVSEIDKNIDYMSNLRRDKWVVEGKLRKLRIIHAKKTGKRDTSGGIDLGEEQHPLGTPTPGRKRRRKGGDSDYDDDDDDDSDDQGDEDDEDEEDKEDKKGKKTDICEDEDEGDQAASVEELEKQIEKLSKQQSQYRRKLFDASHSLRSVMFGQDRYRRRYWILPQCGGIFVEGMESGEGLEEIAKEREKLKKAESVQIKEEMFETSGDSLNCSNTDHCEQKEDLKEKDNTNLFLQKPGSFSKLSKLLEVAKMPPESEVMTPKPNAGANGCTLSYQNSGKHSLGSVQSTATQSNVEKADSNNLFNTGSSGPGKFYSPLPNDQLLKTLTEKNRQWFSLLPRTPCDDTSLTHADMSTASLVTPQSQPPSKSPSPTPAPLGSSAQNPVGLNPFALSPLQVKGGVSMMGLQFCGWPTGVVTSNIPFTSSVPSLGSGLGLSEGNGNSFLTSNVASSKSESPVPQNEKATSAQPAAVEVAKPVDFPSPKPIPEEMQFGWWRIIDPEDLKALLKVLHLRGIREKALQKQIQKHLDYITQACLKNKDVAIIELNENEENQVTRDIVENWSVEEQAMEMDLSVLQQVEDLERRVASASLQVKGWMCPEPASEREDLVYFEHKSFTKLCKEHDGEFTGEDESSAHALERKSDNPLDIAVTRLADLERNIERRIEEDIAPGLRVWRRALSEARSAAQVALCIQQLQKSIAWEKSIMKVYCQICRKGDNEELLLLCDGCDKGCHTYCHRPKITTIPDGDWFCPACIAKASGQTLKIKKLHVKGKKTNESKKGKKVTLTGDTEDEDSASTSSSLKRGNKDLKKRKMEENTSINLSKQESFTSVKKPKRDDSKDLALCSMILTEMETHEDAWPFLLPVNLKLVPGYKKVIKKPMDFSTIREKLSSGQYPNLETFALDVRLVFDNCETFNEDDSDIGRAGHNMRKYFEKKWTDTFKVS", "experiment": "qHTS Assay for Inhibitors of BAZ2B; also: nearly all actives have a fitted effect of over 60% in size", "details": "AlphaScreen BAZ2B-H3K14Ac peptide displacement; activity change, negative = inhibition: at 114 µM (top of the series)", "method_in_brief": "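AlphaScreen displacement: compounds (up to 110uM) incubated 30 min at room temperature with a preformed 50 nM BAZ2B/50 nM biotinylated H3K14Ac peptide complex in PBS pH 7.4 with Tween-20. Donor and acceptor beads at 10 ug/mL final added, 20 min light-protected before reading.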"}
{"smiles": "O=S(=O)(Nc1cc(S(=O)(=O)N2CCOCC2)ccc1O)c1ccc2c(c1)OCCCO2", "Potency": "active: 56.2 µM"}
{"smiles": "CCCCOc1ccc(N=Cc2cccs2)cc1", "Potency": "inconclusive: 79.4 µM [inhibitor, single point]"}
{"smiles": "CCn1ncc(NC(=S)Nc2ccc(OC)c(OC)c2)c1C(N)=O", "Potency": "active: 79.4 µM"}
{"smiles": "COc1ccc(C(=O)NC(=S)Nc2cccc3cc(O)ccc23)cc1OC", "Potency": "inconclusive: 35.5 µM [inhibitor, partial curve]"}
{"smiles": "Cc1ccc(-c2nc(P(=O)(c3ccccc3)c3ccccc3)c(N3CCOCC3)o2)cc1", "Potency": "inconclusive: 50.1 µM [inhibitor, partial curve]"}
{"smiles": "CC(=O)c1sc(NC(=O)c2ccc(Br)o2)nc1C", "Potency": "inconclusive: 1.41 µM [inhibitor, full curve, poor fit]"}
{"smiles": "CC(C)(C)c1cn(-c2ccccc2)c(=S)[nH]1", "Potency": "inconclusive: 89.1 µM [inhibitor, single point]"}
{"smiles": "CCOc1cc(/C=C2\\SC(=S)N(N3CCOCC3)C2=O)ccc1O", "activity change, negative = inhibition": "inactive: 0.277%"}
{"smiles": "COc1ccc(C(c2nnnn2CC2CCCO2)N2CCN(c3ccc(F)cc3)CC2)cc1", "note": "(configuration not stated)", "Potency": "active: 56.2 µM"}
{"smiles": "CCC(C(=O)Nc1nccs1)c1ccccc1", "note": "(configuration not stated)", "activity change, negative = inhibition": "inactive: -5.89%"}
{"smiles": "Cc1ccc2oc(-c3cccc(NC(=O)c4ccc(N5CCC(C)CC5)c([N+](=O)[O-])c4)c3)nc2c1", "Potency": "inconclusive: 100 µM [inhibitor, partial curve]"}
{"smiles": "COc1ccc(Nc2nc(Nc3ccc(OC)cc3OC)nc(N3CCOCC3)n2)c(OC)c1", "Potency": "active: 7.94 µM"}
{"smiles": "COc1ccc(-n2c(NC(=O)c3ccc(Br)o3)c(C#N)c3nc4ccccc4nc32)cc1", "Potency": "inconclusive: 89.1 µM [inhibitor, single point]"}
{"smiles": "CCCCNc1c(-c2ccc(OC)c(Sc3ccc(OC)cc3)c2)nc2ccccn12", "Potency": "active: 39.8 µM"}
{"smiles": "C=CCn1c(C2CC2)n[nH]c1=S", "activity change, negative = inhibition": "inactive: -23.8%"}
{"smiles": "Cc1ccc(Nc2n[nH]c(C)c2[N+](=O)[O-])cc1", "Potency": "inconclusive: 56.2 µM [inhibitor, single point]"}
{"smiles": "CCN(Cc1ccccc1)S(=O)(=O)c1ccc(C(=O)Nc2nnc(C)o2)cc1", "Potency": "inconclusive: 79.4 µM [inhibitor, single point]"}
{"smiles": "O=c1[nH]c(S)c(/C=C2\\C=Nc3ccccc32)s1", "Potency": "active: 11.2 µM"}
{"smiles": "O=c1c(Cc2c(F)cccc2Cl)c(O)ccn1Cc1ccc2c(c1)OCO2", "Potency": "inconclusive: 89.1 µM [inhibitor, single point]"}
{"smiles": "CCC(C)NCCCOc1ccc([N+](=O)[O-])cc1", "note": "(configuration not stated)", "Potency": "inconclusive: 89.1 µM [inhibitor, single point]"}
{"smiles": "CC1=C(C)/C(=N\\OS(=O)(=O)c2ccc(C)cc2)C=CC1=O", "Potency": "active: 25.1 µM"}
{"smiles": "CCOC(=O)c1sc(N)c(C(=O)Nc2ccccc2OC)c1C", "Potency": "inconclusive: 50.1 µM [inhibitor, partial curve]"}
{"smiles": "COCCCN1CN(S(=O)(=O)c2ccc(C)cc2C)c2nc3ccccc3nc21", "Potency": "inconclusive: 70.8 µM [inhibitor, single point]"}
{"smiles": "Nc1nc(NCCCN2CCOCC2)nc(Nc2ccccc2)c1[N+](=O)[O-]", "activity change, negative = inhibition": "inactive: -5.03%"}
{"smiles": "CN(C)c1ccc(C(CNC(=O)Cc2cccc3ccccc23)N(C)C)cc1", "note": "(configuration not stated)", "Potency": "inconclusive: 25.1 µM [inhibitor, single point]"}
{"smiles": "O=C(NC(=S)Nc1ncccn1)c1ccccc1Br", "Potency": "inconclusive: 89.1 µM [inhibitor, single point]"}
{"smiles": "O=C(CN1CCCCC1)N1CCCc2ccccc21", "Potency": "active: 50.1 µM"}
{"smiles": "CCOC(=O)Cc1csc(NC(=O)CSc2cc(Cl)ccc2Cl)n1", "Potency": "inconclusive: 89.1 µM [inhibitor, single point]"}
{"smiles": "COc1ccc(CCNc2oc(COc3ccc(Cl)cc3)nc2C#N)cc1OC", "Potency": "active: 20 µM"}
{"smiles": "COc1ccc(NC(=O)N2CCN(c3nc(-c4cccc(OC)c4)cs3)CC2)cc1", "Potency": "inconclusive: 39.8 µM [inhibitor, partial curve]"}
{"smiles": "COc1ccccc1CNC(=O)C(=O)NCC(c1ccc2c(c1)OCO2)N1CCOCC1", "note": "(configuration not stated)", "activity change, negative = inhibition": "inactive: 5.21%"}
{"smiles": "CCc1ccc(-c2nc(SCC(=O)NCCOC)c(-c3ccc(C)cc3)[nH]2)cc1", "activity change, negative = inhibition": "inactive: -26.2%"}
{"smiles": "O=C(Nc1cccc(O)c1)c1noc2c1CCCCC2", "activity change, negative = inhibition": "inactive: 8.18%"}
{"smiles": "CCc1ccc(CN2CCc3nc(Nc4ccc5c(c4)OCCO5)ncc3C2)cc1", "Potency": "active: 14.1 µM"}
{"smiles": "Cc1cc2ccccc2n1CCNCc1c(C(=O)N2CCOCC2)nc2ccccn12", "Potency": "inconclusive: 17.8 µM [inhibitor, full curve]"}
{"smiles": "CC(C)(C)C1=CC(=O)C(=O)C(C(C)(C)C)=C1", "Potency": "active: 28.2 µM"}
{"smiles": "COc1ccccc1N1CCN(CCCNC(=O)Cn2ncc3c([nH]c4ccccc43)c2=O)CC1", "Potency": "inconclusive: 70.8 µM [inhibitor, single point]"}
{"smiles": "O=C(Nc1cccc(C(F)(F)F)c1)c1cc2ncc(Br)cn2n1", "Potency": "inconclusive: 79.4 µM [inhibitor, single point]"}
{"smiles": "Cc1c(NS(=O)(=O)c2cc(C(=O)NCCN(C)C)ccc2Cl)c(=O)n(-c2ccccc2)n1C", "Potency": "active: 79.4 µM"}
{"smiles": "CCOc1cc(/C=C(/C#N)c2nc3ccccc3[nH]2)ccc1OCc1ccc(C(=O)O)o1", "Potency": "inconclusive: 25.1 µM [inhibitor, partial curve, poor fit]"}
{"smiles": "O=C(COC(=O)/C=C/c1ccco1)Nc1ncc(C(F)(F)F)cc1Cl", "Potency": "active: 44.7 µM"}
{"smiles": "Cc1nc(SCC(=O)N2CCOCC2)c2c(=O)n(C)c(=O)n(C)c2n1", "Potency": "inconclusive: 79.4 µM [inhibitor, single point]"}
{"smiles": "Cc1ccc(C(C[N+](=O)[O-])n2nc(C)cc2C)cc1", "note": "(configuration not stated)", "activity change, negative = inhibition": "inactive: -13.3%"}
{"smiles": "Cc1ccc(C(=O)Nc2nc(-c3ccccn3)cs2)o1", "Potency": "active: 17.8 µM"}
{"smiles": "CC1CN(CCOc2ccc([N+](=O)[O-])cc2)CC(C)O1", "note": "(configuration not stated)", "Potency": "inconclusive: 89.1 µM [inhibitor, single point]"}
{"smiles": "Cc1noc(C)c1C(=O)N1CCN(c2ccc(OCc3ccccc3)cc2)CC1", "Potency": "inconclusive: 50.1 µM [inhibitor, partial curve]"}
{"smiles": "O=C(Nc1ccc(Cl)cc1)N1CCc2[nH]c3ccccc3c2C1", "Potency": "inconclusive: 39.8 µM [inhibitor, partial curve]"}
{"smiles": "CCN(CC)S(=O)(=O)c1ccc(/C=C/C(=O)Nc2ccc(N3CCOCC3)cc2)cc1", "Potency": "inconclusive: 31.6 µM [inhibitor, full curve]"}
{"smiles": "CN(CC(=O)Nc1cccc(F)c1)C(=O)c1ccc(NC2CC2)c([N+](=O)[O-])c1", "Potency": "inconclusive: 89.1 µM [inhibitor, single point]"}
{"smiles": "CCOc1cc(NC(=S)NC)c(OCC)cc1NC(=O)c1cccs1", "Potency": "inconclusive: 39.8 µM [inhibitor, partial curve]"}
{"smiles": "COC(=O)c1sc(-c2ccc(C(C)(C)C)cc2)cc1NC(=O)CCC(=O)O", "activity change, negative = inhibition": "inactive: -28%"}
{"smiles": "O=C(NCCCn1ccnc1)c1ccco1", "Potency": "inconclusive: 56.2 µM [inhibitor, partial curve]"}
{"smiles": "COc1cccc(N(CC(=O)N2CCCCCC2)S(C)(=O)=O)c1", "Potency": "inconclusive: 89.1 µM [inhibitor, single point]"}
{"smiles": "Cc1ccc(OCCCc2c(C)n[nH]c2C)cc1", "Potency": "inconclusive: 89.1 µM [inhibitor, partial curve]"}
{"smiles": "Cc1nnc(N/N=C\\c2ccc(-c3cccc(C(=O)O)c3)o2)n1N", "Potency": "active: 79.4 µM"}
{"smiles": "COc1ccc(Nc2oc(COc3ccccc3OC)nc2C#N)cc1", "Potency": "inconclusive: 44.7 µM [inhibitor, partial curve]"}
{"smiles": "CCCCCn1c(C)c2c(OCC)cccc(=O)c2c1C", "Potency": "inconclusive: 44.7 µM [inhibitor, partial curve]"}
{"smiles": "Cc1ccc(NC(=O)c2sc3nc(N)c(C#N)cc3c2N)cc1", "Potency": "inconclusive: 89.1 µM [inhibitor, single point]"}
{"smiles": "OC(CNc1ccccc1)Cn1ccc2ccccc21", "note": "(configuration not stated)", "Potency": "active: 35.5 µM"}
{"smiles": "CCOC(=O)c1c(C)[nH]c(C)c1S(=O)(=O)N1CCCC(C(=O)N2CCN(c3cc(C)ccc3C)CC2)C1", "note": "(configuration not stated)", "Potency": "active: 44.7 µM"}
{"smiles": "CCOc1ccc(N=Nc2ccc(O)c3ncccc23)cc1", "Potency": "inconclusive: 8.91 µM [inhibitor, full curve]"}
{"smiles": "COc1ccc(OC)c(-c2c3c([nH]c(=S)c2C#N)CCCC3)c1", "Potency": "inconclusive: 44.7 µM [inhibitor, partial curve]"}
{"smiles": "Cc1ccc(NC(=O)Nc2cccs2)cc1", "Potency": "inconclusive: 79.4 µM [inhibitor, single point]"}
{"smiles": "Cc1ccc(C)c(NC(=O)CCC(=O)NNS(=O)(=O)c2ccc(Cl)cc2)c1", "activity change, negative = inhibition": "inactive: 4.25%"}
{"smiles": "Cc1cc(-c2nnc(SCC(=O)Nc3nccs3)o2)no1", "Potency": "active: 20 µM"}
{"smiles": "COc1ccccc1/C=C/C(=O)N1CCc2cc(OC)c(OC)cc2C1C", "note": "(configuration not stated)", "Potency": "inconclusive: 89.1 µM [inhibitor, single point]"}
{"smiles": "COC(=O)C1=C(C(=O)OC)[C@@H]2N(C)c3ccccc3[C@@]23C[C@@H](C(=O)OC)N(C(=O)c2cc(C)oc2C)C3=N1", "Potency": "inconclusive: 50.1 µM [inhibitor, partial curve]"}
{"smiles": "CC(C)Nc1nc(SC(C)C(=O)Nc2ccccc2)nc(N(C)C)n1", "note": "(configuration not stated)", "Potency": "inconclusive: 89.1 µM [inhibitor, single point]"}
{"smiles": "CCCCn1cnc2c1c(=O)n(CC(=O)c1cc(C)n(C)c1C)c(=O)n2CC(C)C", "Potency": "inconclusive: 89.1 µM [inhibitor, single point]"}
{"smiles": "Cc1cc(C)c(NC(=O)CSc2nc3ccc(N4C(=O)c5ccccc5C4=O)cc3s2)c(C)c1", "activity change, negative = inhibition": "inactive: -12%"}
{"smiles": "CCOc1ccccc1CNC(=O)CCCN1C(=O)CCn2nc(-c3cccn3C)cc21", "Potency": "inconclusive: 39.8 µM [inhibitor, partial curve]"}
{"smiles": "COc1cc(C#Cc2c(-c3cncn3C)n(C)c3ccc(-c4ccc(OC)nc4)cc23)cc(OC)c1", "Potency": "active: 39.8 µM"}
